Values joined by “and” are separate entries in the source; they are usually repeats but may differ in a detail not shown here. Equal entries are not always repeated. The whole screen tested about 420,000 compounds, of which about 50,000 (12%) were called active. Inconclusive results, whose numbers are uncertain, are shown with a selection of clear calls. The call rests on the fitted dose curve; in most records, active means well fitted inhibition curve with a large enough effect; inconclusive means small, poorly fitted or top-dose-only effect; inactive means flat fitted curve, though single readings scatter. Potencies of inconclusive entries are left out as doubtful fits.
Test: qHTS for Inhibitors of human tyrosyl-DNA phosphodiesterase 1 (TDP1): qHTS in cells in presence of CPT; further: nearly all actives have a fitted effect of over 55% in size
Conditions: chicken DT40 Tdp1-/-;hTDP1 cells + 20 nM CPT, ATP luminescence, 48 h; activity change, negative = growth inhibition: at 46.2 µM (top of the series) unless noted
Method in brief: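 Chicken DT40 Tdp1-/- cells complemented with human TDP1, 400 cells/well, exposed to compounds plus 20 nM camptothecin for at least 48 h at 37 C; viability read as ATP content by CellTiter-Glo luminescence.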
On the % scale 0 is the no-effect control and ±100 the full control effect; potency means the concentration at half of the fitted maximal effect; tags describe the fitted curve by direction and shape.

Row | SMILES | activity change, negative = growth inhibition | Potency
1 | NS(=O)(=O)c1cnccc1NCCc1ccccc1 | inactive: 9.06% | 
2 | O=C(CN1CCC(c2nc3ccccc3s2)CC1)N1CCCCC1 |  | inconclusive [inhibitor, single point]
3 | CC1CCN(c2ccc(C(=O)NCc3cccs3)cn2)CC1 |  | inconclusive [inhibitor, single point]
4 | COc1ccc(-c2ccc3c(c2)S(=O)(=O)c2cccc(C(=O)NC4CCCCC4)c2C3=O)cc1OC |  | active: 14.6 µM
5 | CN(C(=O)C1CCOC1)c1nnc(-c2ccncc2)s1 (centres undefined) | inactive: -7.14% | 
6 | Cc1cccc2cc3c(N)c(C(=O)N4CCOCC4)sc3nc12 |  | active: 2.06 µM
7 | COc1ccccc1CCNC(=O)c1cc(-c2ccccn2)nc2ccccc12 |  | inconclusive [inhibitor, single point]
8 | Cc1cc2nc(SCCOC(=O)Nc3ccccc3)nc(C)c2cc1C |  | inconclusive [inhibitor, single point]
9 | COc1cc(NC(=O)CN2C(=O)NC(C)(c3ccc4ccccc4c3)C2=O)c(C)cc1[N+](=O)[O-] (centres undefined) |  | inconclusive [inhibitor, single point]
10 | CON(C)S(=O)(=O)c1ccc2c(c1)N(Cc1ccc(C)cc1)C(=O)C1CCCN21 (centres undefined) | inactive: 2.57% | 
11 | COc1cc2[nH]c(=S)nc(NCc3cccc(Cl)c3)c2cc1OC |  | inconclusive [inhibitor, single point]
12 | Cc1ccc(CN2C(=O)CCC2C(=O)NC(C)C)cc1 (centres undefined) | inactive: 10.1% | 
13 | CC(CCc1ccccc1)NC(=O)C1CCN(C(=O)c2sccc2-n2cccc2)CC1 (centres undefined) |  | inconclusive [inhibitor, single point]
14 | Cc1ccc(S(=O)(=O)C(CNC(=O)Cc2ccc(Cl)cc2)c2cccs2)cc1 (centres undefined) |  | inconclusive [inhibitor, single point]
15 | Cc1occc1-c1nnc(SCC(=O)Nc2ccc(F)cc2)n1Cc1ccccc1 |  | inconclusive [inhibitor, single point]
16 | COc1ccccc1N1CCN(C(=O)Nc2cn(CC(C)C)c(=O)c3ccccc23)CC1 |  | inconclusive [inhibitor, single point]
17 | COc1ccc(NC(=O)c2cc(S(=O)(=O)N3CCOCC3)cs2)cc1 | inactive: -6.59% | 
18 | CCCc1cc(C(=O)N(C2CCCCC2)C2CCCCC2)no1 |  | inconclusive [inhibitor, single point]
19 | COC(=O)c1ccc(C)c(NS(=O)(=O)c2ccc3c(c2)OCCO3)c1 |  | active: 0.92 µM
20 | c1ccc(OCCNc2ccn3nc(-c4cccs4)cc3n2)cc1 |  | inconclusive [inhibitor, single point]
21 | COc1ccc(S(=O)(=O)N2CCC(C(=O)NCCC(=O)NC3CC3)CC2)cc1 | inactive: -3.4% | 
22 | CC(C)(NC(=O)c1cc(Cl)c2ccccc2c1O)C(=O)O | inactive: -0.705% | 

Row | SMILES | activity change, negative = growth inhibition | Potency
23 | CCOc1ccccc1-c1nc(-c2ccc(NC(=O)Cc3ccccc3OC)cc2)no1 |  | inconclusive [inhibitor, single point]
24 | N#CCC(=O)Nc1ccc(C(=O)OCC(=O)N=c2sccn2Cc2ccccc2Cl)cc1 |  | inconclusive [inhibitor, single point]
25 | CNC(=O)c1c(NC(=O)C2=COCCO2)sc2c1CCN(C(=O)OC)C2 | inactive: -3.93% | 
26 | CCN(CC)C(=O)c1cc2sc3ccccc3c2s1 |  | inconclusive [inhibitor, single point]
27 | CCOC(=O)c1ccc(NC(=O)Cn2ncc3c(C)n(Cc4ccccc4F)c(C)c3c2=O)cc1 | inactive: -8.3% | 
28 | COC(=O)c1ccc(NC(=O)Cn2c(=O)nc(-c3ccccc3)c3ccccc32)cc1 |  | inconclusive [inhibitor, single point]
29 | CS(=O)(=O)Nc1cccc(-c2nc(Nc3ccc(F)cc3)c3ccccc3n2)c1 |  | active: 5.8 µM
30 | Brc1ccccc1-c1nnc2sc(-c3ccc4c(c3)OCCO4)nn12 |  | active: 11.6 µM
31 | Cc1cc(C)cc(N(CCC#N)C(=O)COC(=O)c2ccccc2SCC(=O)N2CCCC2)c1 |  | inconclusive [inhibitor, single point]
32 | COc1ccc(NC(=O)c2c(NCc3cccs3)sc3c2CCCC3)cc1 |  | inconclusive [inhibitor, single point]
33 | CCCCN(C)CC(O)Cn1cc(/C=C/C(=O)c2ccc(C)cc2)c2ccccc21 (centres undefined) |  | active: 4.61 µM and active: 7.31 µM
34 | Cc1csc(NC(=O)c2cccc(C)c2C)n1 |  | inconclusive [inhibitor, partial curve]
35 | Cc1cccc(Cn2c(N(C)Cc3ccccc3)nc3c2c(=O)[nH]c(=O)n3C)c1 |  | inconclusive [inhibitor, single point]
36 | CN(CCNC(=O)c1ccc(CS(=O)(=O)c2c(Cl)cccc2Cl)o1)CCc1ccccc1 |  | inconclusive [inhibitor, single point]
37 | CN(C)c1cccc(C(=O)Nc2nc3ccccc3[nH]2)c1 |  | inconclusive [inhibitor, single point]
38 | O=C(CN1C(=O)CCC1=O)NCC12CC3CC(CC(C3)C1)C2 |  | inconclusive [inhibitor, single point]
39 | CC(=O)Nc1ccc(S(=O)(=O)Nc2cccc(-c3csc(C)n3)c2)cc1 |  | active: 20.6 µM
40 | O=C(NC(=S)Nc1ccc(CN2CCOCC2)cc1)c1cccc(F)c1 |  | inconclusive [inhibitor, partial curve]
41 | Cc1ccc(-n2c(SCC(=O)NNC(=S)Nc3ccccc3)nc3ccccc3c2=O)cc1 |  | inconclusive [inhibitor, single point]
42 | CC(C)c1ccc(NC(=O)Nc2csc3c2CCCC3)cc1 |  | inconclusive [inhibitor, single point]
43 | O=C(Nc1ccc(C(=O)OCc2cc(=O)n3c4c(sc3n2)CCCC4)cc1)c1ccc(Cl)cc1 |  | inconclusive [inhibitor, single point]
44 | CC(=O)Cc1cc(O)c2ccccc2c1OC(=O)c1ccc(Br)cc1 |  | active: 20.6 µM

Source: PubChem BioAssay AID686979 (National Center for Advancing Translational Sciences (NCATS), 2013)
